# Assay results: PMC4336329 (PLoS ONE, 2015)
# Among all 310,000 compounds or so, about 2,200 (0.71%) showed an effect of 50% or more. The effect is printed as a negative number. The list shows a part of the results.
# Molecular target: human ether-à-go-go-related gene (hERG) potassium channel (human, UniProt Q12809)
# Assay: primary screen, population patch clamp on CHO cells stably expressing hERG
# human ether-à-go-go-related gene (hERG) potassium channel, sequence (Q12809 whole entry, looked up): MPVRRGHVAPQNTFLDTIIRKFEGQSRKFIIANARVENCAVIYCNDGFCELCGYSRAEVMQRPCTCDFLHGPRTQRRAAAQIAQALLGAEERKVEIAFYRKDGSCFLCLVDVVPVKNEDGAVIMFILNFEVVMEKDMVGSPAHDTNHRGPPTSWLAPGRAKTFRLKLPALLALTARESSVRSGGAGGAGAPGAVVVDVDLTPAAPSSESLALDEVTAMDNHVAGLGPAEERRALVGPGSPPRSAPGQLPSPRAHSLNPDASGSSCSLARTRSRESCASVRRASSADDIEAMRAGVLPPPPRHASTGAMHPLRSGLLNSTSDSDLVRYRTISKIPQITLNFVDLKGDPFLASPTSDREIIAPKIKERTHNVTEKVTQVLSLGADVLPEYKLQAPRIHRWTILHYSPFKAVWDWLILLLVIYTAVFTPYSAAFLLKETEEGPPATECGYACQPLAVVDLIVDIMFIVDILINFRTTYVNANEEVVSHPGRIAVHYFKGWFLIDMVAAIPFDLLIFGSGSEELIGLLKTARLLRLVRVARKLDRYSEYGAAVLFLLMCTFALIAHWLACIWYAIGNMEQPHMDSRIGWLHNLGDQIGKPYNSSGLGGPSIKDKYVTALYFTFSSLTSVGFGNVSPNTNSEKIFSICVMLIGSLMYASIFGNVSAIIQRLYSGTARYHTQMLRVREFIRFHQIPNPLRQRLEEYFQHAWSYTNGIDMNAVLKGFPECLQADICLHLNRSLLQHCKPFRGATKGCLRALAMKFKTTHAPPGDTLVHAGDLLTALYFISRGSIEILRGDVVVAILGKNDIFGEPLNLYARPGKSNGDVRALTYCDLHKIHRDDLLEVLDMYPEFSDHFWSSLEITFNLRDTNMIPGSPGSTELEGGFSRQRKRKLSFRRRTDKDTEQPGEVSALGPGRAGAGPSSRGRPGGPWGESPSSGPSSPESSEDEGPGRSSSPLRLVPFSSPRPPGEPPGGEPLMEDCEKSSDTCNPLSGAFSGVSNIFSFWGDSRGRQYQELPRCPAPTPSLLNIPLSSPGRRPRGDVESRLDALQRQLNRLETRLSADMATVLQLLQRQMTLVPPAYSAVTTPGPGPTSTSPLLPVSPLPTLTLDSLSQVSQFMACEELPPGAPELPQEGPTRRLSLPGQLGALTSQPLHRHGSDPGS
row,Structure (SMILES),"hERG current change (%, negative = inhibition) at 1uM [%]"
1,COc1cccc(C(C(=O)NC2CCCC2)N(C(=O)c2csnn2)C2CC2)c1 (stereo not drawn),3.71
2,COc1ccc(CNC(=O)C2CCCN2C(=O)NCc2ccccc2)cc1 (stereo not drawn),4.76
3,Cn1c(=O)n(CCCO)c(=O)c2c1nc1n2CCCN1Cc1ccccc1,3.27
4,CCOC(=O)c1c(NC(C)=O)sc2c(OCCN(CC)CC)c(Br)ccc12,-7.79
5,COc1ccc(/C=C/C(=O)Nc2ccccc2)cc1S(=O)(=O)N1CCOCC1,-14.4
6,CN1CCN(CC(=O)NC23CC4CC(CC(C4)C2)C3)CC1.Cl,12.2
7,COc1cc(NC(=O)C2COc3ccccc3O2)c(OC)cc1Cl (stereo not drawn),13.8
8,Cc1ccc(CNC(=O)COC(=O)COc2ccc(C#N)cc2)cc1,8.73
9,COc1ccc(Cl)cc1NC(=O)CN(C)C(=O)C1CC(=O)N(Cc2ccc(C)cc2)C1 (stereo not drawn),-18.2
10,O=C(CN1N=C(c2ccc(Cl)cc2)CCC1=O)NCCN1CCc2ccccc2C1,-6.5
11,CC(C)N(C(=O)CN(C#N)c1nc(N(C)C)nc(N(C)C)n1)c1ccccc1,-6.19
12,CCN(CC)S(=O)(=O)c1ccc(NC(=O)c2cccs2)cc1,-0.224
13,NS(=O)(=O)c1ccc(O)c(N2C(=O)c3cccc4c(C(=O)O)ccc(c34)C2=O)c1,10.3
14,CCCCNC(=O)Nc1ccc(C2SCCS2)cc1,12.2
15,COc1cccc(C(=O)Nc2ccc(-n3nncc3C(C)(C)C)cc2)c1,-0.351
16,OC(CN1CCCCC1)Cn1c2ccccc2c2ccccc21 (stereo not drawn),9.84
17,COCCOC(=O)c1c(C)oc2ccc(OCC=C(C)C)cc12,13.8
18,COC(=O)c1ccccc1NC(=O)C1CC(=O)N(c2ccc(OC)cc2)C1 (stereo not drawn),0.656
19,CC(=O)Oc1ccc(/C=N/NC(=O)c2ccc(N(C)S(=O)(=O)c3ccccc3)cc2)cc1,13.4
20,CCc1ccc(C(=O)NC(=S)Nc2ccccc2N2CCOCC2)cc1,9.94
21,CCc1ccccc1NC(=O)c1cc2sccc2n1C,1.09
22,Brc1ccc2[nH]c3c(c2c1)CCC3,15.8
23,Cc1cccc(CN2CCCC(C(=O)Nc3ccccc3Oc3cccnc3)C2)c1 (stereo not drawn),-0.213

row,Structure (SMILES),"hERG current change (%, negative = inhibition) at 1uM [%]"
1,CCCCNC(=O)C(Sc1ccccc1)c1ccccc1 (stereo not drawn),12.2
2,COc1ccc(/C(N)=N/OC(=O)Cc2ccccc2OC)cc1,12.9
3,COc1ccc(NC(=O)C2CCN(S(=O)(=O)c3ccc4c(c3)CC(C)N4C(C)=O)CC2)cc1OC (stereo not drawn),14.6
4,COc1ccccc1NC(=O)CN1CCN(CC(=O)Nc2ccc(OC)c(OC)c2)CC1,12
5,Cc1ccc(Cn2nnc3c(=O)n(CC(=O)N4CCCc5ccccc54)cnc32)cc1,7.05
6,Cc1cc(NC(=O)NCc2ccccc2)c(=O)n(Cc2ccccc2F)c1,7.05
7,CCn1c(=O)c([N+](=O)[O-])c(NCCc2ccccc2)c2ccccc21,15.1
8,COc1cc(C(=O)N/N=C/c2ccc(OC(=O)c3ccccc3)c(OC)c2)ccc1O,14.9
9,C#CCNC(=O)C1=C[C@@H](c2ccc(Br)cc2)[C@H](CCCO)[C@@H](OCC)O1,4.79
10,Cc1ccc(Cl)c2sc(NC(=O)C3=COCCO3)nc12,13.6
11,O=CNC1CCCc2c1[nH]c1ccc(Cl)cc21 (stereo not drawn),0.149
12,O=C(CCN1CCN(S(=O)(=O)c2ccc(Cl)cc2)CC1)Nc1ccc(F)cc1,-5.27
13,Cc1cc2ncn(CC(O)COC3CCCCC3)c2cc1C (stereo not drawn),1.09
14,Cc1ccc(CN2CC(C(=O)OCc3ccccc3Cl)CC2=O)cc1 (stereo not drawn),13.3
15,CCS(=O)(=O)N1CCN(c2ccc(C(=O)NC34CC5CC(CC(C5)C3)C4)cc2[N+](=O)[O-])CC1,13.5
16,COc1cc(NC(=O)C2C3CCC(O3)C2C(=O)O)cc(OC)c1 (stereo not drawn),20.4
17,Cc1cccn2cc(-c3ccc4c(c3)NC(=O)CO4)nc12,-9.13
18,CCc1ccc(S(=O)(=O)/N=C2\C=CC(=O)c3ccccc32)cc1,4.67
19,O=C(Cn1nc(CNc2ccc(Cl)cc2)[n+]2c1CCCCC2)c1ccccc1.[Br-],7.42
20,S=C(NC1CCCCC1)N1CCN(C/C=C/c2ccccc2)CC1,3.77
21,COc1ccc(C(CCNCc2ccc(OC)c(OC)c2)c2ccc(F)cc2)cc1 (stereo not drawn),-17.3
22,O=P(NC(c1ccccc1)c1ccccc1)(Oc1ccccc1)Oc1ccccc1,1.26
